# Read-outs that look alike come from different tables or passages of the source.
# System: Cl. perfringens
# Format: cell-based, Clostridium perfringens
# Conditions: 24 h, 1 w/v-% carbohydrate
structure (smiles),measurement,setting,value
"OC[C@H]1O[C@H](O)[C@H](O)[C@@H](O)[C@@H]1O [Glucose, Alpha-D-Glucose]",average area under the growth curve without medium,"Table 9 first experiment, C. perfringens",1006
same,average area under the growth curve without medium,"Table 10 second experiment, Cl. perfringens",1059

# From patent US20100092429A1, “Composition” (Danisco A/S, priority 2006, published 2010)
